Patent publication US20200199241A1 (Chugai, published 2020)

T1: human FcγRIIa(R) (human, UniProt P12318 36-217)
T1 construct: also called FcgRIIaR; hFcgRIIa(R)
T1 chain: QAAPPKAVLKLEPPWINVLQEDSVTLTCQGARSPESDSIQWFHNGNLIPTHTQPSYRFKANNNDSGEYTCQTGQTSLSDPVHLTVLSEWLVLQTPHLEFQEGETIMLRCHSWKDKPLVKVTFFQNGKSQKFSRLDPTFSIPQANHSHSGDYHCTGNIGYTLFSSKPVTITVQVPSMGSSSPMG

B1: VH3-IgG1-F648/L(WT)-CK (antibody)
heavy: QVQLQESGPGLVKPSETLSLTCAVSGHSISHDHAWSWVRQPPGEGLEWIGFISYSGITNYNPSLQGRVTISRDNSKNTLYLQMNSLRAEDTAVYYCARSLARTTAMDYWGEGTLVTVSS[here human IgG1 constant region with P238D (EU numbers) without letters]
light: DIQMTQSPSSLSASVGDRVTITCRASQDISSYLNWYQQKPGKAPKLLIYYTSRLHSGVPSRFSGSGSGTDFTFTISSLQPEDIATYYCQQGNTLPYTFGQGTKVEIKRTVAAPSVFIFPPSDEQLKSGTASVVCLLNNFYPREAKVQWKVDNALQSGNSQESVTEQDSKDSTYSLSSTLTLSKADYEKHKVYACEVTHQGLSSPVTKSFNRGEC
notes: P238D in VH3-IgG1; copies: 2 + 2
B2: IgG1-F761 (antibody)
heavy: QVQLQESGPGLVKPSETLSLTCAVSGHSISHDHAWSWVRQPPGEGLEWIGFISYSGITNYNPSLQGRVTISRDNSKNTLYLQMNSLRAEDTAVYYCARSLARTTAMDYWGEGTLVTVSS[here human IgG1 constant region with P238D N434Y (EU numbers) without letters]
light: DIQMTQSPSSLSASVGDRVTITCRASQDISSYLNWYQQKPGKAPKLLIYYTSRLHSGVPSRFSGSGSGTDFTFTISSLQPEDIATYYCQQGNTLPYTFGQGTKVEIKRTVAAPSVFIFPPSDEQLKSGTASVVCLLNNFYPREAKVQWKVDNALQSGNSQESVTEQDSKDSTYSLSSTLTLSKADYEKHKVYACEVTHQGLSSPVTKSFNRGEC
notes: EU numbering; copies: 2 + 2
B3: IgG1-F1159 (antibody)
heavy: QVQLQESGPGLVKPSETLSLTCAVSGHSISHDHAWSWVRQPPGEGLEWIGFISYSGITNYNPSLQGRVTISRDNSKNTLYLQMNSLRAEDTAVYYCARSLARTTAMDYWGEGTLVTVSS[here human IgG1 constant region with S424N N434W (EU numbers) without letters]
light: DIQMTQSPSSLSASVGDRVTITCRASQDISSYLNWYQQKPGKAPKLLIYYTSRLHSGVPSRFSGSGSGTDFTFTISSLQPEDIATYYCQQGNTLPYTFGQGTKVEIKRTVAAPSVFIFPPSDEQLKSGTASVVCLLNNFYPREAKVQWKVDNALQSGNSQESVTEQDSKDSTYSLSSTLTLSKADYEKHKVYACEVTHQGLSSPVTKSFNRGEC
notes: EU numbering; copies: 2 + 2
B4: IgG1-F1174 (antibody)
heavy: QVQLQESGPGLVKPSETLSLTCAVSGHSISHDHAWSWVRQPPGEGLEWIGFISYSGITNYNPSLQGRVTISRDNSKNTLYLQMNSLRAEDTAVYYCARSLARTTAMDYWGEGTLVTVSS[here human IgG1 constant region with P257I N434H (EU numbers) without letters]
light: DIQMTQSPSSLSASVGDRVTITCRASQDISSYLNWYQQKPGKAPKLLIYYTSRLHSGVPSRFSGSGSGTDFTFTISSLQPEDIATYYCQQGNTLPYTFGQGTKVEIKRTVAAPSVFIFPPSDEQLKSGTASVVCLLNNFYPREAKVQWKVDNALQSGNSQESVTEQDSKDSTYSLSSTLTLSKADYEKHKVYACEVTHQGLSSPVTKSFNRGEC
notes: EU numbering; copies: 2 + 2
B5: IgG1-F82 (antibody)
heavy: QVQLQESGPGLVKPSETLSLTCAVSGHSISHDHAWSWVRQPPGEGLEWIGFISYSGITNYNPSLQGRVTISRDNSKNTLYLQMNSLRAEDTAVYYCARSLARTTAMDYWGEGTLVTVSS[here human IgG1 constant region with T256Q N434W (EU numbers) without letters]
light: DIQMTQSPSSLSASVGDRVTITCRASQDISSYLNWYQQKPGKAPKLLIYYTSRLHSGVPSRFSGSGSGTDFTFTISSLQPEDIATYYCQQGNTLPYTFGQGTKVEIKRTVAAPSVFIFPPSDEQLKSGTASVVCLLNNFYPREAKVQWKVDNALQSGNSQESVTEQDSKDSTYSLSSTLTLSKADYEKHKVYACEVTHQGLSSPVTKSFNRGEC
notes: EU numbering; copies: 2 + 2
B6: IgG1-F83 (antibody)
heavy: QVQLQESGPGLVKPSETLSLTCAVSGHSISHDHAWSWVRQPPGEGLEWIGFISYSGITNYNPSLQGRVTISRDNSKNTLYLQMNSLRAEDTAVYYCARSLARTTAMDYWGEGTLVTVSS[here human IgG1 constant region with T256Q N434Y (EU numbers) without letters]
light: DIQMTQSPSSLSASVGDRVTITCRASQDISSYLNWYQQKPGKAPKLLIYYTSRLHSGVPSRFSGSGSGTDFTFTISSLQPEDIATYYCQQGNTLPYTFGQGTKVEIKRTVAAPSVFIFPPSDEQLKSGTASVVCLLNNFYPREAKVQWKVDNALQSGNSQESVTEQDSKDSTYSLSSTLTLSKADYEKHKVYACEVTHQGLSSPVTKSFNRGEC
notes: EU numbering; copies: 2 + 2
B7: IgG1-F115 (antibody)
heavy: QVQLQESGPGLVKPSETLSLTCAVSGHSISHDHAWSWVRQPPGEGLEWIGFISYSGITNYNPSLQGRVTISRDNSKNTLYLQMNSLRAEDTAVYYCARSLARTTAMDYWGEGTLVTVSS[here human IgG1 constant region with T307A N434A (EU numbers) without letters]
light: DIQMTQSPSSLSASVGDRVTITCRASQDISSYLNWYQQKPGKAPKLLIYYTSRLHSGVPSRFSGSGSGTDFTFTISSLQPEDIATYYCQQGNTLPYTFGQGTKVEIKRTVAAPSVFIFPPSDEQLKSGTASVVCLLNNFYPREAKVQWKVDNALQSGNSQESVTEQDSKDSTYSLSSTLTLSKADYEKHKVYACEVTHQGLSSPVTKSFNRGEC
notes: EU numbering; copies: 2 + 2
B8: IgG1-F116 (antibody)
heavy: QVQLQESGPGLVKPSETLSLTCAVSGHSISHDHAWSWVRQPPGEGLEWIGFISYSGITNYNPSLQGRVTISRDNSKNTLYLQMNSLRAEDTAVYYCARSLARTTAMDYWGEGTLVTVSS[here human IgG1 constant region with E380A N434A (EU numbers) without letters]
light: DIQMTQSPSSLSASVGDRVTITCRASQDISSYLNWYQQKPGKAPKLLIYYTSRLHSGVPSRFSGSGSGTDFTFTISSLQPEDIATYYCQQGNTLPYTFGQGTKVEIKRTVAAPSVFIFPPSDEQLKSGTASVVCLLNNFYPREAKVQWKVDNALQSGNSQESVTEQDSKDSTYSLSSTLTLSKADYEKHKVYACEVTHQGLSSPVTKSFNRGEC
notes: EU numbering; copies: 2 + 2
B9: IgG1-F188 (antibody)
heavy: QVQLQESGPGLVKPSETLSLTCAVSGHSISHDHAWSWVRQPPGEGLEWIGFISYSGITNYNPSLQGRVTISRDNSKNTLYLQMNSLRAEDTAVYYCARSLARTTAMDYWGEGTLVTVSS[here human IgG1 constant region with P257I Q311I (EU numbers) without letters]
light: DIQMTQSPSSLSASVGDRVTITCRASQDISSYLNWYQQKPGKAPKLLIYYTSRLHSGVPSRFSGSGSGTDFTFTISSLQPEDIATYYCQQGNTLPYTFGQGTKVEIKRTVAAPSVFIFPPSDEQLKSGTASVVCLLNNFYPREAKVQWKVDNALQSGNSQESVTEQDSKDSTYSLSSTLTLSKADYEKHKVYACEVTHQGLSSPVTKSFNRGEC
notes: EU numbering; copies: 2 + 2
B10: IgG1-F511 (antibody)
heavy: QVQLQESGPGLVKPSETLSLTCAVSGHSISHDHAWSWVRQPPGEGLEWIGFISYSGITNYNPSLQGRVTISRDNSKNTLYLQMNSLRAEDTAVYYCARSLARTTAMDYWGEGTLVTVSS[here human IgG1 constant region with P257V N434Y (EU numbers) without letters]
light: DIQMTQSPSSLSASVGDRVTITCRASQDISSYLNWYQQKPGKAPKLLIYYTSRLHSGVPSRFSGSGSGTDFTFTISSLQPEDIATYYCQQGNTLPYTFGQGTKVEIKRTVAAPSVFIFPPSDEQLKSGTASVVCLLNNFYPREAKVQWKVDNALQSGNSQESVTEQDSKDSTYSLSSTLTLSKADYEKHKVYACEVTHQGLSSPVTKSFNRGEC
notes: EU numbering; copies: 2 + 2
B11: IgG1-F512 (antibody)
heavy: QVQLQESGPGLVKPSETLSLTCAVSGHSISHDHAWSWVRQPPGEGLEWIGFISYSGITNYNPSLQGRVTISRDNSKNTLYLQMNSLRAEDTAVYYCARSLARTTAMDYWGEGTLVTVSS[here human IgG1 constant region with P257T N434Y (EU numbers) without letters]
light: DIQMTQSPSSLSASVGDRVTITCRASQDISSYLNWYQQKPGKAPKLLIYYTSRLHSGVPSRFSGSGSGTDFTFTISSLQPEDIATYYCQQGNTLPYTFGQGTKVEIKRTVAAPSVFIFPPSDEQLKSGTASVVCLLNNFYPREAKVQWKVDNALQSGNSQESVTEQDSKDSTYSLSSTLTLSKADYEKHKVYACEVTHQGLSSPVTKSFNRGEC
notes: EU numbering; copies: 2 + 2
B12: IgG1-F617 (antibody)
heavy: QVQLQESGPGLVKPSETLSLTCAVSGHSISHDHAWSWVRQPPGEGLEWIGFISYSGITNYNPSLQGRVTISRDNSKNTLYLQMNSLRAEDTAVYYCARSLARTTAMDYWGEGTLVTVSS[here human IgG1 constant region with S239K N434W (EU numbers) without letters]
light: DIQMTQSPSSLSASVGDRVTITCRASQDISSYLNWYQQKPGKAPKLLIYYTSRLHSGVPSRFSGSGSGTDFTFTISSLQPEDIATYYCQQGNTLPYTFGQGTKVEIKRTVAAPSVFIFPPSDEQLKSGTASVVCLLNNFYPREAKVQWKVDNALQSGNSQESVTEQDSKDSTYSLSSTLTLSKADYEKHKVYACEVTHQGLSSPVTKSFNRGEC
notes: EU numbering; copies: 2 + 2

Target: T1, human FcγRIIa(R)
Assay: SPR, pH 7.4, antibody captured by Protein L

binding amount | Binder
12.2 RU | B1

target: T2, soluble human FcRn complexed with β2-microglobulin (human, UniProt P61769 partial chain, limits assumed); assay: Biacore SPR, pH 7.0;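 note: test antibodies captured on a Protein L chip with human FcRn flowed over as analyte, KD obtained as the ratio of dissociation to association rate constants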
T2 construct: also called hFcRn

Kd | Binder
1100 nM | B2
479 nM | B3
490 nM | B4

target: T3, human FcRn (soluble human FcRn complexed with β2-microglobulin) (human, UniProt P61769 partial chain, limits assumed); assay: SPR, pH 7.0;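 note: antibodies captured on a Protein L sensor chip with human FcRn injected as analyte, KD calculated from fitted association and dissociation rate constants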
T3 construct: also called hFcRn

Kd | Binder
1100 nM | B5
2600 nM | B6
6600 nM | B7
8700 nM | B8
3000 nM | B9
420 nM | B10
580 nM | B11
740 nM | B12
